{"source": "PubChem BioAssay AID540317", "about": "(National Center for Advancing Translational Sciences (NCATS), 2011)", "note": "Out of some 390,000 compounds screened, about 2,200 (0.56%) were called active. This list was built around the results that the source calls inconclusive (neither active nor inactive); the mix of calls is not that of the screen. Calls follow the shape of the dose curve; as a rule, active = well fitted inhibition curve with a large enough effect; inconclusive = small, poorly fitted or top-dose-only effect; inactive = no such curve, though single readings can be large or run the other way. A potency beside an inconclusive call is a rough fit, not a confirmed value. Potency is read from the fitted curve at half-maximal effect; tags tell the direction and shape of the fitted curve."}
{"target": "Chromobox protein homolog 1 (Homo sapiens) (UniProt P83916)", "sequence (P83916 whole entry, looked up)": "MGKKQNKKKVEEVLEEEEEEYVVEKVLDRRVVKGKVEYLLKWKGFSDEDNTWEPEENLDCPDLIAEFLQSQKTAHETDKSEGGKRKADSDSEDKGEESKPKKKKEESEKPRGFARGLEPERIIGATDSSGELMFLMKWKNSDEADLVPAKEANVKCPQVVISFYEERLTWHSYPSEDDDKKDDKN", "experiment": "HTS for Inhibitors of HP1-beta Chromodomain Interactions with Methylated Histone Tails; also: nearly all actives have a fitted effect of over 70% in size", "details": "AlphaScreen HP1-beta / biotin-H3K9me3 peptide binding; series mostly up to 114 µM; activity change, negative = inhibition: at the top concentration", "method_in_brief": "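AlphaScreen: HP1-beta (50 nM) preformed 30 min with biotin-H3(1-18)K9me3 peptide (50 nM) in PBS pH 7.4, 0.01% Tween-20. Compound added for 30 min at RT, then streptavidin donor/nickel chelate acceptor beads (10 ug/mL) for 30 min.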"}
{"smiles": "CCCCC1=CC2=CC(=O)C(C)(OC(=O)C3CCCC3)C(=O)C2=CO1", "note": "(centres undefined)", "Potency": "inconclusive: 44.7 µM [inhibitor, partial curve]"}
{"smiles": "CC1CCN(S(=O)(=O)c2ccc3c(c2)N(CC(=O)NC(C)(C)C)C(=O)CS3)CC1", "activity change, negative = inhibition": "inactive: 20%"}
{"smiles": "CCOC(=O)c1ccccc1NC(=O)CSc1cn(CC(=O)N2CCCCCC2)c2ccccc12", "Potency": "inconclusive: 5.01 µM [inhibitor, single point]"}
{"smiles": "O=C(COC(=O)c1ccc([N+](=O)[O-])s1)Nc1ncc(C(F)(F)F)cc1Cl", "Potency": "inconclusive: 56.2 µM [inhibitor, single point]"}
{"smiles": "COc1ccc(C(C)(C)C)cc1NC(=O)CCc1c(C)noc1C", "activity change, negative = inhibition": "inactive: 64.1%"}
{"smiles": "CCN(CC)c1ccc(NC(=O)c2ccc(Cl)nc2)cc1", "Potency": "inconclusive: 79.4 µM [inhibitor, partial curve, poor fit]"}
{"smiles": "CC(SC1=NS(=O)(=O)c2ccccc21)C(=O)O", "note": "(centres undefined)", "Potency": "inconclusive: 12.6 µM [inhibitor, partial curve, poor fit]"}
{"smiles": "C=CCN(CC=C)CCOc1ccc(C)cc1[N+](=O)[O-]", "Potency": "inconclusive: 15.8 µM [inhibitor, full curve]"}
{"smiles": "CN(C)c1ccc(C2=NOC(CN3C(=O)c4ccccc4S3(=O)=O)C2)cc1", "note": "(centres undefined)", "Potency": "inconclusive: 28.2 µM [inhibitor, partial curve]"}
{"smiles": "CCOC(=O)Cc1csc(NC(=O)CN2CCOCC2)n1", "activity change, negative = inhibition": "inactive: 48.5%"}
{"smiles": "CSc1ccc(CNc2ccc(C)cc2)cc1", "Potency": "inconclusive: 50.1 µM [inhibitor, partial curve]"}
{"smiles": "CCOCCCNCC(=O)Nc1ccc(OC(F)(F)F)cc1", "Potency": "inconclusive: 6.31 µM [inhibitor, full curve]"}
{"smiles": "CCOCCOc1cc(NCc2ccccc2)c2ncn(C(C)C)c2c1", "Potency": "active: 14.1 µM"}
{"smiles": "COc1ccc(Br)c(C(=O)NNC(=O)c2ccc(NS(=O)(=O)c3cccs3)cc2)c1", "activity change, negative = inhibition": "inactive: 19.8%"}
{"smiles": "COc1ccc(NCc2nnc(SCc3ccc(Cl)cc3)n2-c2ccccc2)cc1", "Potency": "inconclusive: 22.4 µM [inhibitor, full curve, poor fit]"}
{"smiles": "Cc1ccc(NC(=S)c2nc3ccccc3s2)cc1", "Potency": "inconclusive: 12.6 µM [inhibitor, partial curve]"}
{"smiles": "O=[N+]([O-])c1ccc(N2CCN(c3ccccc3O)CC2)c(Cl)c1", "Potency": "inconclusive: 28.2 µM [inhibitor, partial curve]"}
{"smiles": "CC(C)NC(=O)C1CCN(Cc2cccc(Oc3ccccc3)c2)CC1", "Potency": "inconclusive: 12.6 µM [inhibitor, partial curve, poor fit]"}
{"smiles": "CC(C)c1nc(SCC(=O)Nc2ccc(N(C)C)cc2)c2ccccc2n1", "activity change, negative = inhibition": "inactive: -11.7%"}
{"smiles": "Cc1nn(-c2ccc(N3CCCC3)nn2)c(C)c1CCC(=O)N1CCN(c2ccc(F)cc2)CC1", "activity change, negative = inhibition": "inactive: 110%"}
{"smiles": "CCN(CC(=O)NC(C)C)C(=O)c1ccc(S(=O)(=O)N(C)c2ccccc2OC)cc1", "Potency": "inconclusive: 7.08 µM [inhibitor, single point]"}
{"smiles": "O=C(c1ccco1)N1CCN(Cc2cccc(F)c2)CC1", "Potency": "inconclusive: 22.4 µM [inhibitor, full curve]"}
{"smiles": "O=C(O)c1ccc2c(c1)C(=O)/C(=C\\c1ccco1)C2=O", "Potency": "inconclusive: 31.6 µM [inhibitor, full curve]"}
{"smiles": "Cc1[nH]n(-c2ccccc2)c(=O)c1-c1cccc(Cl)c1", "activity change, negative = inhibition": "inactive: 7.87%"}
{"smiles": "N#C/C(=C\\c1ccccc1[N+](=O)[O-])c1nc(C2CC2)cs1", "Potency": "inconclusive: 44.7 µM [inhibitor, partial curve]"}
{"smiles": "COc1ccc(OC)c(NC(=O)CSc2nccn2-c2cc(C)cc(C)c2)c1", "Potency": "inconclusive: 12.6 µM [inhibitor, partial curve]"}
{"smiles": "COc1ccc(S(=O)(=O)N2CCN(Cc3ccccc3[N+](=O)[O-])CC2)cc1", "Potency": "inconclusive: 14.1 µM [inhibitor, full curve]"}
{"smiles": "Cc1[nH]c(-c2ccc(F)cc2)cc1C(=O)N1CCN(c2ccccc2F)CC1", "Potency": "inconclusive: 79.4 µM [inhibitor, partial curve]"}
{"smiles": "COc1ccc(-n2nc3c(c2NC(=O)C(=O)NCc2ccccc2)CSC3)cc1", "activity change, negative = inhibition": "inactive: 29.6%"}
{"smiles": "O=c1cc(CO)oc(C(Nc2ccccn2)c2ccccc2Cl)c1O", "note": "(centres undefined)", "Potency": "inconclusive: 31.6 µM [inhibitor, full curve]"}
{"smiles": "Cc1noc(C)c1CSCC(=O)Nc1cc(Cl)ccc1N1CCOCC1", "activity change, negative = inhibition": "inactive: 26.8%"}
{"smiles": "COc1ccc(Nc2nc(-c3cccs3)cs2)cc1", "Potency": "inconclusive: 15.8 µM [inhibitor, partial curve, poor fit]"}
{"smiles": "COc1ccccc1CNC(=O)CNCCc1ccc(OC)c(OC)c1", "Potency": "inconclusive: 12.6 µM [inhibitor, partial curve]"}
{"smiles": "Cc1cc(/C=N/NC(N)=S)c(C)n1-c1cccc(Cl)c1", "Potency": "inconclusive: 39.8 µM [inhibitor, partial curve]"}
{"smiles": "Clc1ccc(OCCn2cnc(Cl)c2Cl)cc1", "Potency": "inconclusive: 44.7 µM [inhibitor, partial curve]"}
{"smiles": "CCOC(=O)C1CCN(C2=C(NS(=O)(=O)c3ccc(Cl)cc3)C(=O)c3ccccc3C2=O)CC1", "Potency": "inconclusive: 10 µM [inhibitor, full curve, poor fit]"}
{"smiles": "C/C(=N\\NC(=S)NC1CCCCC1)c1cccs1", "Potency": "inconclusive: 79.4 µM [inhibitor, partial curve]"}
{"smiles": "N#C/C(=C\\c1ccc(Cl)c([N+](=O)[O-])c1)c1ccccn1", "Potency": "inconclusive: 79.4 µM [inhibitor, partial curve]"}
{"smiles": "COc1ccc(Cl)cc1NC(=O)c1cc(=O)c2cc(C)cc(C)c2o1", "activity change, negative = inhibition": "inactive: 53.8%"}
{"smiles": "CC(=NNC(=S)N1CCN(C2CCCCCC2)CC1)c1ccccn1", "Potency": "inconclusive: 56.2 µM [inhibitor, single point]"}
{"smiles": "CCc1ccc2c(c1)c(=O)c(S(=O)(=O)c1ccccc1)cn2CC(=O)Nc1cc(C)ccc1C", "activity change, negative = inhibition": "inactive: 50.1%"}
{"smiles": "CC(C)(C)OC(=O)N1CCC(c2c(C(=O)N3CCN(c4ccccc4F)CC3)cnn2C(C)(C)C)CC1", "activity change, negative = inhibition": "inactive: 19%"}
{"smiles": "N#Cc1nc(COc2ccc(-c3ccccc3)cc2)oc1NCc1cccnc1", "Potency": "inconclusive: 17.8 µM [inhibitor, partial curve, poor fit]"}
{"smiles": "CC1CCc2c(sc(N)c2C(=O)OC(C)C)C1", "note": "(centres undefined)", "Potency": "inconclusive: 79.4 µM [inhibitor, partial curve, poor fit]"}
